In patent US7244430 (CRUCELL HOLLAND B V, dated 2007):

Molecular target: T1, recombinantly expressed purified soluble WNV E protein (strain 382-99) (West Nile virus strain 382-99, UniProt Q9Q6P4 291-696)
T1 construct: also called recombinant WNV-E protein; truncated E protein; not shown: Myc tag and His tag
T1 sequence: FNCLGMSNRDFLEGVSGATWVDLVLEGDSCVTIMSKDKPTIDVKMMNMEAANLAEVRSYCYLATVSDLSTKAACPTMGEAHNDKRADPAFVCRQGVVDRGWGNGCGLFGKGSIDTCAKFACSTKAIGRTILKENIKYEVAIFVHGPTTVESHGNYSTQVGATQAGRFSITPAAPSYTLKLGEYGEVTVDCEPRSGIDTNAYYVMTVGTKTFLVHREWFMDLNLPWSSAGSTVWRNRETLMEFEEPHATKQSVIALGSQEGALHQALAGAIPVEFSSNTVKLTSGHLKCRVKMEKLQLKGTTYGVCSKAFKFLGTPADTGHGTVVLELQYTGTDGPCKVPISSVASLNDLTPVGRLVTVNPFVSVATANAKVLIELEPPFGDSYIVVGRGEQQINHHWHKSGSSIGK
Experiment: phage ELISA, coated recombinant soluble WNV E protein

B1: SC04-274 (scFv)
scFv: QVQLVQSGAEVKKPGESLKISCKGSGYSFTSYWIGWVRQMPGKGLEWMGIIYPGDSDTRYSPSFQGQVTISADRSISTAYLQWSSLKASDTAMYYCARLRGPYYDFWNGYRETHDAFNVWGQGTTVTVSSGTGGSGGTGSGTGGS[skipping about 100 residues]FGGGTKVEIKR
OD 492 nm: 0.496 OD 492 nm
